This is one part of the list. Further columns of the screen follow, without active or inactive calls.
Legend:
Experiment in all cases: Primary Screen for Target Class Profiling of Small Molecule Inhibitors of Methyltransferases
[1] = molecular target: Glycine N-methyltransferase (Homo sapiens) (UniProt Q14749); conditions: purified enzyme, MTase-Glo SAH luminescence; measured here: GNMT inhibition; at 40 µM; stronger effect = lower value
Source text: (§1) PI: Matthew D. Hall Ph.D. and Quinlin M. Hanson Ph.D.
(§2) National Center for Advancing Translational Sciences (NCATS)
(§3) National Institute of Health (NIH), Rockville, MD
(§4) Target class profiling (TCP) is a chemical biology approach amenable to investigating understudied biological targets. TCP is achieved by developing a generalizable assay platform and applying it to screen a curated set of compound libraries against representative members of a target class. Small molecule methyltransferases (SMMTase) are a subclass of methyltransferase that act on metabolites to modulate signaling pathways, metabolize xenobiotics, or balance the available methyl pool. We screened four curated libraries totaling 27,574 unique compounds against the SMMTases nicotinamide N-methyltransferase (NNMT), phenylethanolamine N-methyltransferase (PNMT), histamine N-methyltransferase (HNMT), glycine N-methyltransferase (GNMT), catechol O-methyltransferase (COMT), and guanidinoacetate N-methyltransferase (GAMT). The data generated by this TCP can be leveraged for informed tool molecule development. For example, in the associated publication we identified a chemotype of HNMT-selective inhibitors. Additionally, we identified a putative SMMTase-selective inhibitor with potential as a tool molecule for studying broader methyltransferase biology.
(§5) High-through put screening assays were developed at the National Center for Advancing Translational Science (NCATS) for the enzymes NNMT, PNMT, HNMT, GNMT, COMT, and GAMT. Enzymatic activity was measured as a function of SAM cofactor conversion using the MTase Glo kit (Promega) for all enzymes. All assays were performed in 1536-well format with substrates and SAM concentrations at KM values. Enzyme concentration and assay timing were optimized for 10-20% SAM conversion. Initial screening of 27,574 compounds was done as single-point assays using the highest compound concentration (40 uM). […] These compounds were replated in 11-point dose response and assayed against NNMT, PNMT, HNMT, GNMT, COMT, GAMT, and a counter-assay. The IC50 and efficacy (maximal response) values were determined for each dose-response curve. These values are also accounted for in the area under the curve (AUC) values.
(§6) PROTOCOL TABLE (as described by Inglese J, Shamu CE and Guy RK. 2007)
(§7) SEQUENCE No. (e.g., 1, 2, 3, etc.); […] (e.g., Cells, Incubation, Reagent, etc.); VALUE; DESCRIPTION.
(§8) 1; Reagent; 2 uL; SMMTase Enzyme (2x) in reaction buffer, columns 1- 48.
(§9) 2; Reagent; 1 uL; SAM (4x) in reaction buffer, columns 1-48.
(§10) 3; Controls; 23 nL; DMSO in column 4; sinefungin in DMSO (0 uM - 40 uM) in 7-point 1:2 dilution series (n = 2) in column 2.
(§11) 4; Compounds; 23 nL; Columns 5-48.
(§12) 5; Reagent; 1 uL; Substrate (4x) in reaction buffer, columns 2-48.
(§13) 6; Time; 20-30 min; Incubation.
(§14) 7; Reagent; 1 uL; MTase-Glo reagent (5X), columns 1-48.
(§15) 8; Time; 30 min; Incubation.
(§16) 9; Reagent; 5 uL; MTase-Glo Detection reagent, columns 1-48.
(§17) 10; Time; 30 min; Incubation, luminescence evolution.
(§18) 11; Detection; Luminescence; ViewLux uHTS Microplate Imager (PerkinElmer).
(§19) NOTES (numbers refer to Sequence numbers above)
(§20) 1, 2, 5. White Medium Binding Greiner 1536-well plates (Cat #789175-F, Greiner Bio-One, Monroe, NC); Reaction buffer: 50 mM Tris, pH 8.0, 3 mM MgCl2, 1 mM EDTA, 50 mM NaCl, 1 mM DTT, and 0.1 mg/mL BSA. Evaporation was prevented by covering assay plates with metal lids containing holes to allow gas diffusion.
(§21) 1. Six SMMTase were profiled: HNMT, GNMT, PNMT, COMT, NNMT, GAMT
(§22) 5. The corresponding substrate was used for each enzyme: HNMT - 5.3 uM Histamine; GNMT - >500 uM Glycine; PNMT - 16.2 uM Norephinephrine; COMT - 13.7 uM Norephinephrine; NNMT - 3.8 uM Nicotinamide; GAMT - 2.5 uM Guanidinoacetate.6, 8, 10. Room temperature
(§23) 6. Final reaction conditions: 10 nM COMT, 5 uM SAM, 15 uM norepinephrine, 50 mM Tris, pH 8.0, 3 mM MgCl2, 1 mM EDTA, 50 mM NaCl, 1 mM DTT, and 0.1 mg/mL BSA; refer to tables 2 and S1 for specific timing.
8. […]

[2] = molecular target: Guanidinoacetate N-methyltransferase (Homo sapiens) (UniProt Q14353); conditions: purified enzyme, MTase-Glo SAH luminescence; measured here: GAMT inhibition; at 40 µM; stronger effect = lower value
Source text: as §1, §2, §3, §4, §5, §6, §7, §8, §9, §10, §11, §12, §13, §14, §15, §16, §17, §18, §19, §20, §21, §22, §23
8. […]

[3] = molecular target: Histamine N-methyltransferase (Homo sapiens) (UniProt P50135); conditions: purified enzyme, MTase-Glo SAH luminescence; measured here: HNMT inhibition; at 40 µM; stronger effect = lower value
Source text: as §1, §2, §3, §4, §5, §6, §7, §8, §9, §10, §11, §12, §13, §14, §15, §16, §17, §18, §19, §20, §21, §22, §23
8. […]

[4] = molecular target: Nicotinamide N-methyltransferase (Homo sapiens) (UniProt P40261); conditions: purified enzyme, MTase-Glo SAH luminescence; measured here: NNMT inhibition; at 40 µM; stronger effect = lower value
Source text: as §1, §2, §3, §4, §5, §6, §7, §8, §9, §10, §11, §12, §13, §14, §15, §16, §17, §18, §19, §20, §21, §22, §23
8. […]

[5] = molecular target: Phenylethanolamine N-methyltransferase (Homo sapiens) (UniProt P11086); conditions: purified enzyme, MTase-Glo SAH luminescence; measured here: PNMT inhibition; at 40 µM; stronger effect = lower value
Source text: as §1, §2, §3, §4, §5, §6, §7, §8, §9, §10, §11, §12, §13, §14, §15, §16, §17, §18, §19, §20, §21, §22, §23
8. […]
% is scaled to controls: 0 for no effect and ±100 for the full control effect.

Compound | activity change, negative = inhibition [1] [%] | activity change, negative = inhibition [2] [%] | activity change, negative = inhibition [3] [%] | activity change, negative = inhibition [4] [%] | activity change, negative = inhibition [5] [%]
O=c1[nH]c(N2CCc3ccccc3C2)nc2c1CCN(Cc1cccs1)CC2 | 1.78 | 2.17 | 1.41 | 7.93 | -0.505
CN(C)Cc1nnc(C2CC(NC(=O)c3conc3-c3ccccc3)C2)n1C (configuration not stated) | -5.97 | -7.63 | -3.37 | -9.58 | -8.3
O=C(Cn1nc2n(CCc3ccccc3)c(=O)c3ccccc3n2c1=O)c1ccc(F)cc1 | -1.78 | 1.98 | 4.38 | -5.75 | 1.87
COc1ccccc1CNC(=O)C1(C)Cn2nc(-c3ccccc3)cc2C(=O)N1Cc1ccccc1Cl (configuration not stated) | -1.94 | 0.749 | -5.52 | 0.064 | -9.28
CN1C(=O)c2cc(C(=O)NCCCc3ccccc3)nn2CC1(C)C(=O)NC1CCCCCC1 (configuration not stated) | -0.063 | 4.17 | -3.51 | -2.85 | -1.15
O=C(c1cccnc1)N1CC[C@H](c2nc3ccccc3o2)C1 | -1.55 | 1.79 | 1.06 | -6.28 | 13.1
CC(C)NC(=O)c1ccc2c(=O)n(Cc3ccccc3)c3nn(Cc4ccccc4F)c(=O)n3c2c1 | 7.78 | 0 | 11.2 | 7.75 | 8.46
CCN1CCN(Cc2ccc(NC(=O)c3ccc(C)c(Oc4ccnc5[nH]ccc45)c3)cc2C(F)(F)F)CC1 | -6.06 | 3.18 | -35.9 | -15.5 | -0.872
CCCCNC(=O)Cn1ccc2cc(S(=O)(=O)N3CCCCC3)ccc21 | 1.5 | 0.38 | -5.45 | 1.28 | -2.31
NCCCCNCCCN | 10.9 | 11.6 | 14.2 | -1.9 | 0.249
CC(c1ccc(-c2ccc(CC(=O)O)cn2)cc1)N1CCCCC1 (configuration not stated) | -5.77 | -10.8 | -9.88 | -15.6 | -11.3
COc1ccc(CNC(=O)c2ccc3c(=O)n(-c4ccc(F)cc4)c4nnc(C)n4c3c2)cc1 | -6.51 | 0 | -3.74 | 3.45 | -4.76
C[C@H](O)[C@@H]1C(=O)N2C(C(=O)O)=C(S[C@@H]3CN[C@H](CNS(N)(=O)=O)C3)[C@@H](C)[C@@H]12 | -12 | – | 1.99 | – | –
COC(=O)Nc1ccc(-c2nc(N3CCOCC3)c3cnn(C4CCN(Cc5cccnc5)CC4)c3n2)cc1 | -32.8 | 6.94 | -12.6 | -17.6 | -11.2
CCn1nc2n(c1=O)CCN(Cc1cc(C)ccc1C)C2=O | -0.004 | 0.635 | -0.792 | -1.44 | -1.93
O=C(Cc1ccc(-c2ccc(OCCN3CCOCC3)cc2)cn1)NCc1ccccc1 | 0.255 | -2.45 | 6.16 | -10.1 | 0.929
CCCN1C(=O)c2ccc(-c3ccccc3)n2CC1(C)C(=O)NC1CCCCCCC1 (configuration not stated) | -9.69 | -1.23 | -4.43 | -4.92 | -4.99
CC(C)CNC(=O)c1ccc2c(=O)n(C(C)C)c3nn(C)c(=O)n3c2c1 | 5.81 | 1.02 | 12.7 | 3.62 | -1.18
Cc1ccc(Nc2ccn3c(=O)n(CC(=O)Nc4ccc(C)c(F)c4)nc3n2)cc1 | -3.38 | 4.88 | -6.75 | -5.4 | -4.27
CCCn1c(=O)c2ccc(C(=O)NCC(C)C)cc2n2c(=O)n(CC(=O)NCc3ccc(C)cc3)nc12 | 7.05 | 2.65 | 7.44 | 6.64 | 7.67
